Results as given in paper PMC12040169 (PLOS Biology, 2025).
The other results are listed elsewhere or left out.

Tested on: T1, C. trachomatis L2/434/Bu expressing GFP (CTL2-GFP)
T1 construct: L2/434/Bu GFP intracellular growth in HeLa cells
Parameters: species or system HeLa; C. trachomatis total inclusion area by high-content imaging, normalised to DMSO
Conditions: total inclusion area; 28.5 h, 10 µM; inhibitor
In short: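 Host cell viability was gauged from Hoechst-stained nuclei counts, while chlamydial growth was taken from total inclusion area and inclusion number per well. Cells were fixed and imaged by high-content microscopy once bulk GFP and resorufin fluorescence had been measured.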

Row | SMILES | % of control remaining
1 | Cc1nnc(SCCN2CCOC2=O)n1CCc1cccs1 [CBK304029] | 86.5973
2 | Clc1cccc(CN2CCC(N3CCN(c4ccccc4)CC3)CC2)c1 [CBK264690G] | 88.2605
3 | Cc1nc2cc(-c3nccn3C)nn2c(N2CCN(c3ccc(O)cc3)CC2)c1C [CBK286427] | 101.17
4 | O=C(Nc1ccccc1)[C@H]1O[C@H](CCN2CCN(c3ccccc3)CC2)CC[C@@H]1O [CBK288725] | 92.9152
5 | O=C(Cc1c[nH]c2ccccc12)N1CCC2(CCCN(C(=O)c3c(F)cccc3F)C2)C1 (stereo not shown) [CBK131605] | 83.6513
6 | CS(=O)(=O)c1ccc(-c2cnc3nc(N)ccc3c2)cc1 [CBK061916] | 88.5723
7 | c1ccc(Cn2c3ccccc3c3nnc(SCc4ccc5nonc5c4)nc32)cc1 [CBK267517] | 120.527
8 | COC(=O)c1sccc1NC(=O)c1ccc(F)cc1Cl [CBK270325] | 131.993
9 | O=C(CN1CCN(c2ccccc2)CC1)Nc1ccc(Cl)cc1C(=O)c1ccccc1 [CBK265827] | 130.808
10 | COc1ccc(Cl)cc1N1CCN(Cc2ncc[nH]2)CC1 [CBK126418] | 109.869
11 | CN(C(=O)CSc1nnn(C)n1)c1ccccc1 [CBK058129] | 90.7019
12 | CC(C)(C)OC(=O)NC1CCc2ccccc2N(Cc2ccccc2)C1=O (stereo not shown) [CBK013366] | 102.563
13 | O=C(CN1C(=O)N2CCCN=C2c2ccccc21)N1CCCCCC1 [CBK284399] | 74.0193
14 | CC(=O)N(Cc1cccnc1)c1nc2cc3c(cc2s1)OCCO3 [CBK287696] | 89.5916
15 | Cc1cc2ccccc2n1CCCNS(=O)(=O)c1ccc2[nH]c(=O)[nH]c(=O)c2c1 [CBK286362] | 102.595
16 | Cc1csc(SC(C)C(=O)N2CCc3ccccc32)n1 (stereo not shown) [CBK305909] | 30.1485
17 | O=C(O)CCC(=O)N1CCC(c2nnc3ccccn23)CC1 [CBK287920] | 84.6311
18 | O=S(=O)(Nc1ccc(C(O)(C(F)(F)F)C(F)(F)F)cc1)c1cccc2nsnc12 [CBK062096] | 123.627
19 | O=C(NNC(=S)NCCc1ccccc1)c1ccc(Br)o1 [CBK266818] | 90.2219
20 | O=C(NCC1c2ccccc2CCN1C(=O)CN1C(=O)c2ccccc2C1=O)C1CCCCC1 (stereo not shown) [CBK262582] | 104.284
21 | CCn1nc(C)c(-c2cncn2CC(C)n2nc(C)cc2C)c1C (stereo not shown) [CBK281777] | 101.112
22 | Nc1ncc(-c2ccco2)nc1NCc1ccco1 [CBK063682] | 93.5249
23 | O/N=C1/c2ccccc2/C(=N/O)C1c1ccccc1 [CBK261122] | 86.297
24 | c1cn2c(-c3ccoc3)cnc(N3CCOCC3)c2n1 [CBK091292] | 101.271
25 | OCCN(Cc1cccnc1)Cc1cccn1-c1ccc(F)cc1 [CBK283023] | 89.4111
26 | COCCn1c(SCc2cc(=O)oc3cc(C)ccc23)nnc1-c1ccc(Cl)cc1 [CBK297517] | 105.917

Row | SMILES | % of control remaining
27 | CC(C)C(=O)Nc1cc2ccccc2c(-c2cc(F)cc(F)c2)n1 [CBK085775] | 92.8447
28 | CCN(CC)c1c(C)nc2ccc(C(=O)N3CCN(C)CC3)cn12 [CBK145955] | 96.7784
29 | N#CC1=C(N)N2C(=C(C#N)C13CCN(Cc1ccccc1)CC3)Nc1ccccc12 [CBK267241] | 86.6402
30 | CC(C)NC(=O)C1(Cc2ccc(-c3ccccc3)cc2)CCN(C(=O)C2CCC2)CC1 [CBK285750] | 101.517
31 | CSCCN1CCN(c2nccnc2Oc2ccc(F)cc2)CC1 [CBK083028T] | 87.7831
32 | CCOC(=O)c1cnc2c(Cl)cc(Cl)cc2c1NCCN1CCOCC1 [CBK307278] | 62.7751
33 | c1ccc(NCCOc2cncc(N3CCCC3)n2)cc1 [CBK115670] | 87.3244
34 | COc1cc2c(cc1NC(=O)C(C)Oc1ccccc1)oc1ccccc12 (stereo not shown) [CBK264061] | 87.3853
35 | COc1ccc(CNc2nc(C)n[nH]2)cc1Cl [CBK288036] | 115.663
36 | CCOC(=O)c1cccc(NS(=O)(=O)c2cc(Br)ccc2OC)c1 [CBK034336] | 91.6622
37 | CC(C)(CC(=O)O)CC(=O)Nc1ccc(-c2nc3ccccc3s2)cc1 [CBK299796] | 112.083
38 | O=C(O)c1csc(S(=O)(=O)Nc2ccccc2C(=O)Nc2ccc3c(c2)OCO3)c1 [CBK295655] | 93.0231
39 | CC(C)(C)c1n[nH]c(C2CN(C(=O)CCc3ccco3)CCO2)n1 (stereo not shown) [CBK305204] | 20.1667
40 | CC(C)C(CO)NC(=O)C1(Cc2ccc(-c3ccc(F)c(F)c3)cc2)CCOCC1 (stereo not shown) [CBK286525] | 77.622
41 | CCOC(=O)c1sc(-c2ccc(Br)cc2)nc1O [CBK075087] | 76.0957
42 | Cc1conc1C(=O)N1CCCCC1CN1CCOCC1 (stereo not shown) [CBK304771] | 38.6156
43 | Cc1cc(C(=O)CSc2nc(=O)cc(O)n2CC(C)C)c(C)n1C [CBK295649] | 106.677
44 | CCOc1ccc(NC(=O)CSc2nc3nc(C)cc(C)n3n2)cc1 [CBK268278] | 105.549
45 | Clc1ccccc1CN1CCC(n2cnc3cccnc32)CC1 [CBK283967] | 90.8172
46 | CC(=O)N(C)c1nc(-c2ccccc2C)ccc1C(=O)N(C)C [CBK106350] | 92.5657
47 | CCOc1cc(OCC)cc(C(=O)N2CCC3(CC2)CC(=O)c2ccc(OCC)cc2O3)c1 [CBK168014] | 101.791
48 | CCc1nn(CC(=O)N2CCCCC2)c(=O)c2cc3ccsc3n12 [CBK284119] | 87.8205
49 | COc1ccc(C(=O)Nc2cccnc2N2CCNCC2)cc1 [CBK029421T] | 73.397
50 | Cc1nc2cc(C(=O)N3CCCCC3CN3CCOCC3)ccc2[nH]1 (stereo not shown) [CBK304219] | 56.8052
51 | Clc1ccc(C2N(Cc3ccccc3)CCC3CCCCN32)cc1Cl (stereo not shown) [CBK028769] | 55.0008
52 | Cc1ccc(S(=O)(=O)Nc2sccc2C(=O)O)cc1 [CBK042244] | 116.926
